# According to patent publication US20190231847A1, “TREATMENT OF OCULAR DISEASE” (priority 2016, published 2019):
# Tested on: retinal inflammation
# Experiment: Mouse experimental autoimmune uveitis (EAU) model, clinical score from fundus images (TEFI)
# Conditions: ALM201 0.3 mg/kg
sequence,measurement,value
IRQQPRDPPTETLELEVSPDPAS (listed as Homo Sapiens) [ALM201],Retinal inflammation clinically and histologically,slightly reduced retinal inflammation
